# Assay results taken from the supplement of paper PMC8728848.
# Some of the results follow.
# Experiments:
# Assay in all cases: glycan array binding signal (z-score within array); higher = stronger binding
# Settings in all cases: glycan notation: IUPAC condensed, linker removed
# [1] = biological target: Gal(a1-3)Gal
# How it was run: (§1)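 The Consortium for Functional Glycomics database supplied 3228 glycan arrays, of which those lacking an available protein sequence were dropped. The binding signal, a within-array Z-score, was averaged across arrays of the same protein sequence and across linkers. Negative scores can be read as non-binding.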
# [2] = biological target: Gal(a1-3)Gal(b1-3)GlcNAc
# How it was run: as §1
# [3] = biological target: Gal(a1-3)Gal(b1-3)GlcNAc(b1-2)Man
# How it was run: as §1
# [4] = biological target: Gal(a1-3)Gal(b1-3)GlcNAc(b1-2)Man(a1-3)[Gal(a1-3)Gal(b1-3)GlcNAc(b1-2)Man(a1-6)]Man(b1-4)GlcNAc(b1-4)GlcNAc
# How it was run: as §1
# [5] = biological target: Gal(a1-3)Gal(b1-3)GlcNAc(b1-3)GalNAc
# How it was run: as §1
# [6] = biological target: Gal(a1-3)Gal(b1-3)GlcNAc(b1-6)GalNAc
# How it was run: as §1
# [7] = biological target: Gal(a1-3)Gal(b1-3)[Fuc(a1-4)]GlcNAc(b1-2)Man(a1-3)[Gal(a1-3)Gal(b1-3)[Fuc(a1-4)]GlcNAc(b1-2)Man(a1-6)]Man(b1-4)GlcNAc(b1-4)GlcNAc
# How it was run: as §1
# [8] = biological target: Gal(a1-3)Gal(b1-4)Glc
# How it was run: as §1
# [9] = biological target: Gal(a1-3)Gal(b1-4)GlcNAc
# How it was run: as §1
# [10] = biological target: Gal(a1-3)Gal(b1-4)GlcNAc(b1-2)Man
# How it was run: as §1
# [11] = biological target: Gal(a1-3)Gal(b1-4)GlcNAc(b1-2)Man(a1-3)[Gal(a1-3)Gal(b1-4)GlcNAc(b1-2)Man(a1-6)]Man(b1-4)GlcNAc(b1-4)GlcNAc
# How it was run: as §1
# [12] = biological target: Gal(a1-3)Gal(b1-4)GlcNAc(b1-3)GalNAc
# How it was run: as §1
# [13] = biological target: Gal(a1-3)Gal(b1-4)GlcNAc(b1-6)GalNAc
# How it was run: as §1
# [14] = biological target: Gal(a1-3)Gal(b1-4)[Fuc(a1-3)]GlcNAc
# How it was run: as §1
# [15] = biological target: Gal(a1-3)Gal(b1-4)[Fuc(a1-3)]GlcNAc(b1-2)Man(a1-3)[Gal(a1-3)Gal(b1-4)[Fuc(a1-3)]GlcNAc(b1-2)Man(a1-6)]Man(b1-4)GlcNAc(b1-4)GlcNAc
# How it was run: as §1
# [16] = biological target: Gal(a1-3)GalNAc
# How it was run: as §1
# [17] = biological target: Gal(a1-3)[Gal(a1-4)]Gal(b1-4)GlcNAc
# How it was run: as §1
# [18] = biological target: Gal(a1-4)Gal(b1-3)GlcNAc(b1-2)Man(a1-3)[Gal(a1-4)Gal(b1-3)GlcNAc(b1-2)Man(a1-6)]Man(b1-4)GlcNAc(b1-4)GlcNAc
# How it was run: as §1
# [19] = biological target: Gal(a1-4)Gal(b1-4)Glc
# How it was run: as §1
# [20] = biological target: Gal(a1-4)Gal(b1-4)GlcNAc
# How it was run: as §1
# [21] = biological target: Gal(a1-4)Gal(b1-4)GlcNAc(b1-2)Man(a1-3)[Gal(a1-4)Gal(b1-4)GlcNAc(b1-2)Man(a1-6)]Man(b1-4)GlcNAc(b1-4)GlcNAc
# How it was run: as §1
# [22] = biological target: Gal(a1-4)Gal(b1-4)GlcNAc(b1-3)Gal(b1-4)Glc
# How it was run: as §1
# [23] = biological target: Gal(a1-4)GlcNAc
# How it was run: as §1
# [24] = biological target: Gal(a1-6)Glc
# How it was run: as §1
# [25] = biological target: Gal(b1-2)Gal
# How it was run: as §1
# [26] = biological target: Gal(b1-3)Gal
# How it was run: as §1
# [27] = biological target: Gal(b1-3)Gal(b1-4)GlcNAc
# How it was run: as §1
# [28] = biological target: Gal(b1-3)GalNAc
# How it was run: as §1
# [29] = biological target: Gal(b1-3)GalNAc(a1-3)[Fuc(a1-2)]Gal(b1-4)Glc
# How it was run: as §1
# [30] = biological target: Gal(b1-3)GalNAc(a1-3)[Fuc(a1-2)]Gal(b1-4)GlcNAc
# How it was run: as §1
# [31] = biological target: Gal(b1-3)GalNAc(b1-3)Gal
# How it was run: as §1
# [32] = biological target: Gal(b1-3)GalNAc(b1-3)Gal(a1-4)Gal(b1-4)Glc
# How it was run: as §1
# [33] = biological target: Gal(b1-3)GalNAc(b1-4)Gal(b1-4)Glc
# How it was run: as §1
# [34] = biological target: Gal(b1-3)GalNAc(b1-4)[Neu5Ac(a2-3)]Gal(b1-4)Glc
# How it was run: as §1
# [35] = biological target: Gal(b1-3)GlcNAc
# How it was run: as §1
# [36] = biological target: Gal(b1-3)GlcNAc(a1-3)Gal(b1-4)GlcNAc
# How it was run: as §1
# [37] = biological target: Gal(b1-3)GlcNAc(a1-6)Gal(b1-4)GlcNAc
# How it was run: as §1
# [38] = biological target: Gal(b1-3)GlcNAc(b1-2)Man
# How it was run: as §1
binder,measurement,setting,value
"AT5G01260(PC)(40) (Arabidopsis thaliana), Q9LFB0 (protein) MIGIGRTLTSSSPSKIILEDLPPGIYRYGTEIFTSVPRKTFHHIKFLRLDSAQSSRILKPVPLRSSSIKDSQVNVEDEEIEASNKTVRVRFQLRKECVFGEHFFIVGDDPVFGGLWDPETALPLNWSDGNVWTVDLDLPVGRLVEFKLLLKAQTGEILWQPGPNRALETWETNKTIRICEDWDNADLQMMIEEDFVPYTNISSIGSEDEDEVLGSVQQNSSVVAVENAGYVSDESAQNSSFSIQSEKTMEPSNGALTAREVIKEAMFTEEESPVLVPGLIPLSDLDNEQVEVINEGKAETFPEVDKKQEPKAERNKKAKVKAISLFEKSEQEAVKSVEQRQYNAVEEEQQRLETEPLGTPDVLFENDIQWGRRTLYKLLSNFRLF",glycan array binding signal (z-score),[1],0.282
same,glycan array binding signal (z-score),[2],0.182
same,glycan array binding signal (z-score),[3],-0.515
same,glycan array binding signal (z-score),[4],0.163
same,glycan array binding signal (z-score),[5],-0.258
same,glycan array binding signal (z-score),[6],-0.575
same,glycan array binding signal (z-score),[7],0.054
same,glycan array binding signal (z-score),[8],-0.327
same,glycan array binding signal (z-score),[9],-0.113
same,glycan array binding signal (z-score),[10],-0.337
same,glycan array binding signal (z-score),[11],-0.127
same,glycan array binding signal (z-score),[12],-0.235
same,glycan array binding signal (z-score),[13],-0.159
same,glycan array binding signal (z-score),[14],-0.238
same,glycan array binding signal (z-score),[15],-0.425
same,glycan array binding signal (z-score),[16],2.32
same,glycan array binding signal (z-score),[17],9.44
same,glycan array binding signal (z-score),[18],-0.012
same,glycan array binding signal (z-score),[19],1.85
same,glycan array binding signal (z-score),[20],0.56
same,glycan array binding signal (z-score),[21],-0.382
same,glycan array binding signal (z-score),[22],-0.501
same,glycan array binding signal (z-score),[23],-0.448
same,glycan array binding signal (z-score),[24],0.604
same,glycan array binding signal (z-score),[25],-0.57
same,glycan array binding signal (z-score),[26],0.058
same,glycan array binding signal (z-score),[27],0.044
same,glycan array binding signal (z-score),[28],-0.493
same,glycan array binding signal (z-score),[29],-0.096
same,glycan array binding signal (z-score),[30],-0.621
same,glycan array binding signal (z-score),[31],-0.418
same,glycan array binding signal (z-score),[32],0.025
same,glycan array binding signal (z-score),[33],2.16
same,glycan array binding signal (z-score),[34],-0.614
same,glycan array binding signal (z-score),[35],-0.349
same,glycan array binding signal (z-score),[36],-0.517
same,glycan array binding signal (z-score),[37],0.125
same,glycan array binding signal (z-score),[38],-0.276
